In all, about 360,000 compounds went through this assay and about 25,000 (6.9%) were called active. This list was built around the results that the source calls inconclusive (neither active nor inactive); the mix of calls is not that of the screen. Calls follow the shape of the dose curve; as a rule, active = well fitted inhibition curve with a large enough effect; inconclusive = small, poorly fitted or top-dose-only effect; inactive = flat fitted curve, though single readings scatter. Potencies beside an inconclusive call are fits to weak or partial responses and may not hold up.
Target: Luciferin 4-monooxygenase (Photinus pyralis) (UniProt P08659)
UniProt P08659, sequence (P08659 whole entry, looked up): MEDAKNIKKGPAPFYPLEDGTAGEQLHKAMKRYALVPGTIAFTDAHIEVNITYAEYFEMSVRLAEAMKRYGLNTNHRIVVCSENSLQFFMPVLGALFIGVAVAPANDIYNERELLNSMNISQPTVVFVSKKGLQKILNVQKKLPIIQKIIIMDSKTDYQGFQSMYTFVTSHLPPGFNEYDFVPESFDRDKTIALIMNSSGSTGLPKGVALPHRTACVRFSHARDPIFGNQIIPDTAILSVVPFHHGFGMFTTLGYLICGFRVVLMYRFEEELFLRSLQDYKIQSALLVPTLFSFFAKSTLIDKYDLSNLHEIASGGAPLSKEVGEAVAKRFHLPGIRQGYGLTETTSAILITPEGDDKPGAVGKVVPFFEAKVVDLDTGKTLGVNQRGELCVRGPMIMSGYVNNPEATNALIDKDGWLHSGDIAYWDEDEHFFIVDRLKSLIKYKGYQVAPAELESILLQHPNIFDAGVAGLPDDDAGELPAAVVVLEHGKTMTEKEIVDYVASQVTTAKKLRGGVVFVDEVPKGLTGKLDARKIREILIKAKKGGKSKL
Assay: qHTS profiling assay for firefly luciferase inhibitor/activator using purifed enzyme and Km concentrations of substrates (counterscreen for miR-21 project); also: nearly all actives have a fitted effect of over 55% in size;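 as to activity change, negative = inhibition: plate controls were vehicle for no effect and reference inhibitor for full effect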
Details: purified FLuc, luminescence inhibition; series mostly up to 57.5 µM; activity change, negative = inhibition: at the top concentration
Method in brief: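 Purified P. pyralis luciferase (10nM final) with 10uM D-luciferin and 10uM ATP (Km levels) in 50mM Tris acetate pH 7.5, 10mM Mg acetate, 0.01% Tween-20, 0.05% BSA; qHTS 6-point titration, ~60 µM downward; luminescence read.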
Potency is read from the fitted curve at half-maximal effect; tags tell the direction and shape of the fitted curve.

| Structure (SMILES) | Potency | activity change, negative = inhibition |
| --- | --- | --- |
| COc1ccc(OCc2cc(C(=O)N(C)CCC3CCOCC3)no2)c(Cl)c1 | active: 16.9 µM | – |
| O=C(CNC(=O)Cc1ccccc1)NCC(=O)N1CCCCC1 | – | inactive: -0.18% |
| CCOc1ccc2nc(NC(=O)CN3CCC(n4nnc5cc(F)ccc54)CC3)sc2c1 | inconclusive: 19 µM [inhibitor, partial curve] | – |
| COCCN(C(=O)CNC(=O)c1cccs1)C(C(=O)NC(C)(C)C)c1ccccc1 (configuration not stated) | inconclusive: 0.012 µM [inhibitor, partial curve, poor fit] | – |
| Cc1ccc(OCc2cc(C(=O)N(C)CCc3nc4ccccc4[nH]3)no2)cc1C | inconclusive: 33.8 µM [inhibitor, partial curve, poor fit] | – |
| O=c1[nH]cnc2scc(C3COc4ccccc4O3)c12 (configuration not stated) | inconclusive: 30.1 µM [inhibitor, partial curve, poor fit] | – |
| O=C(N/N=C/C1=Cc2ccccc2OC1)c1ccncc1 | inconclusive: 19 µM [inhibitor, partial curve] | – |
| O=C(Cc1ccccc1)Nc1ccc(NC(=O)c2ccco2)nc1 | active: 16.9 µM | – |
| COc1ccc(-c2noc(-c3ccc(N4CCC(C)CC4)c([N+](=O)[O-])c3)n2)cc1OC | inconclusive: 12 µM [inhibitor, partial curve] | – |
| O=C(Nc1ccc(S(=O)(=O)N2CCCCC2)cc1)c1ccncc1 | – | inactive: -1.38% |
| N=c1c2c(n(Cc3ccc(Cl)cc3)c3c1CCC3)CCC2 | – | inactive: -1.04% |
| CCC(=O)Nc1sc(Cc2ccc3c(c2)OCO3)c(C)c1C(N)=O | inconclusive: 37.9 µM [inhibitor, partial curve, poor fit] | – |
| C=C1c2ccccc2S(=O)(=O)N(Cc2ccccc2)C1COCc1ccccc1 (configuration not stated) | – | inactive: -3.29% |
| COc1cc2c(c(OC)c1OC)C(=O)CC2 | – | inactive: -0.307% |
| CC(C)(C)c1ccc(C(=O)NCC(=O)OCC(=O)N2CCN(S(=O)(=O)c3ccc(Cl)cc3)CC2)cc1 | inconclusive: 8.49 µM [inhibitor, partial curve, poor fit] | – |
| O=C(COc1ccccc1[N+](=O)[O-])N/N=C/c1cccc(OC(=O)c2ccc3c(c2)OCO3)c1 | – | inactive: -13.7% |
| CCCCCn1c(=N)c(S(=O)(=O)c2ccccc2)cc2c(=O)n3cccc(C)c3nc21 | – | inactive: 0.685% |
| Cc1nnc(SCc2ccccc2Cl)c2cc3occc3n12 | active: 16.9 µM | – |
| CCC1C(=O)Nc2nc(-c3ccccc3)c(-c3ccccc3)n2N=C1C (configuration not stated) | – | inactive: -0.317% |
| CCN(CC)c1ccc(/C=N/NC(=O)Cc2cccs2)c(O)c1 | inconclusive: 26.9 µM [inhibitor, single point] | – |
| Cc1ccc(OCCN2CCNCC2)c([N+](=O)[O-])c1 | inconclusive: 26.9 µM [inhibitor, partial curve, poor fit] | – |
| COc1cc(-c2noc(-c3ccc(NC4CCCCC4)c([N+](=O)[O-])c3)n2)cc(OC)c1OC | inconclusive: 12 µM [inhibitor, partial curve] | – |
| Cc1cccc(OCC(=O)NNc2c3ccccc3nc3ccccc23)c1 | inconclusive: 26.9 µM [inhibitor, partial curve, poor fit] | – |
| CN(C(=O)Cc1c[nH]c2ccccc12)C(C(=O)Nc1ccc2c(c1)OCO2)c1ccccc1 (configuration not stated) | inconclusive: 26.9 µM [inhibitor, partial curve, poor fit] | – |

| Structure (SMILES) | Potency | activity change, negative = inhibition |
| --- | --- | --- |
| C=CCN(c1ccc(C(=O)Nc2cc(C)cc(C)c2)cc1)S(C)(=O)=O | inconclusive: 30.1 µM [inhibitor, partial curve, poor fit] | – |
| Cc1ccc(OCCCN2C(=O)C(=O)c3cccc(C)c32)cc1 | active: 23.9 µM | – |
| O=C(Nc1cc(-c2nc3ccccc3s2)ccc1Cl)c1ccc2c(c1)OCO2 | active: 10.7 µM | – |
| COc1ccccc1-n1ncc2c(=O)[nH]c(SCC(=O)Nc3cccc(F)c3)nc21 | inconclusive: 12 µM [inhibitor, partial curve, poor fit] | – |
| CCCCNS(=O)(=O)c1ccc2nc(SCC(=O)Nc3sccc3C#N)[nH]c2c1 | inconclusive: 23.9 µM [inhibitor, partial curve, poor fit] | – |
| CCOC(=O)c1c(NC(=O)c2ccccc2Br)sc2c1CCc1ccccc1-2 | inconclusive: 23.9 µM [inhibitor, single point] | – |
| CC1=NN(c2ccc(C)cc2)C(=O)/C1=C\C=C\c1ccccc1 | inconclusive: 26.9 µM [inhibitor, partial curve, poor fit] | – |
| CCCCCCc1cc2cc(C(N)=O)c(=N)oc2cc1O | active: 16.9 µM | – |
| CN1CCN(c2cnn(-c3ccccc3)c(=O)c2Br)CC1 | – | inactive: -5.79% |
| O=C(COc1ccc(Cl)cc1Br)Nc1ccncc1 | active: 9.53 µM | – |
| Cc1nc2ccc(S(=O)(=O)N(CC(=O)Nc3ccc(Cl)cc3)Cc3ccccc3)cc2s1 | – | inactive: -12.3% |
| CCCC(=O)N/C(N)=N/c1nc2ccccc2o1 | active: 6.75 µM | – |
| Cc1ccc(CNC(=O)c2cnc3ccccc3n2)cc1 | – | inactive: -14.9% |
| O=C(Nc1ccccc1C(=O)O)c1cc(S(=O)(=O)N2CCOCC2)c(Br)s1 | inconclusive: 37.9 µM [inhibitor, single point] | – |
| Cc1[nH]c2ccccc2c1/C=N/NS(=O)(=O)c1ccccc1 | – | inactive: -10.3% |
| CCOC(=O)C1=C(O)/C(=C/c2cccc(OC)c2O)N=C1C | inconclusive: 23.9 µM [inhibitor, single point] | – |
| Cc1ccccc1S(=O)(=O)Oc1cccc2c(O)cccc12 | inconclusive: 19 µM [inhibitor, partial curve] | – |
| CNC(=O)c1cccc(NC(=O)c2cc(-c3ccccc3)nc3c2cnn3C(C)C)c1 | – | inactive: -12.2% |
| CC(C)(CNC(=O)c1sc2cc(F)ccc2c1Cl)N1CCOCC1 | inconclusive: 37.9 µM [inhibitor, partial curve, poor fit] | – |
| Cn1c(=O)c(=O)n(C)c2cc(N3CCCC3)c(NC(=O)c3ccc(C(C)(C)C)cc3)cc21 | – | inactive: -10.3% |
| COC(=O)c1ccc(CSc2ccc(S(=O)(=O)N3CCCCC3)cn2)cc1 | – | inactive: 0.326% |
| CCc1ccc(NC(=O)CSc2nnc(CNC(=O)c3c(F)cccc3Cl)o2)cc1 | inconclusive: 30.1 µM [inhibitor, partial curve, poor fit] | – |
| CC(NC(=S)NC1CCC(C(C)(C)C)CC1)c1ccccc1 (configuration not stated) | – | inactive: -0.625% |
| CC(=O)Nc1ccc(S(=O)(=O)N2CCN(c3ccccc3)CC2)cc1 | – | inactive: -1.03% |

| Structure (SMILES) | Potency | activity change, negative = inhibition |
| --- | --- | --- |
| CC(C)Nc1nc(NC(C)C)nc(N(C#N)C(C)C(=O)N(C)C)n1 (configuration not stated) | – | inactive: -2.24% |
| CCc1nn(CC(=O)N2CCN(c3cccc(C(F)(F)F)c3)CC2)c(=O)c2cc3occc3n12 | – | inactive: -1.64% |
| Nc1nc2ccc([N+](=O)[O-])c(N)c2s1 | inconclusive: 33.8 µM [inhibitor, partial curve, poor fit] | – |
| COc1cccc(N2CCN(C(=O)Cn3cnc4onc(-c5ccc(F)cc5)c4c3=O)CC2)c1 | – | inactive: -10.7% |
| CCN(CC)S(=O)(=O)c1cccc(C(=O)Nc2ccc(Cl)cn2)c1 | inconclusive: 19 µM [inhibitor, single point] | – |
| COc1ccc(-c2nc(C(=O)O)cs2)cc1OC | inconclusive: 37.9 µM [inhibitor, partial curve, poor fit] | – |
| CC(C)(C)c1cc[n+](C2=C([O-])c3ccccc3C(=O)/C2=N\S(=O)(=O)c2ccccc2)cc1 | inconclusive: 23.9 µM [inhibitor, single point] | – |
| COc1ccc(-c2csc(NC(=O)CCCc3nc4ccccc4c(=O)[nH]3)n2)cc1OC | inconclusive: 23.9 µM [inhibitor, partial curve, poor fit] | – |
| O=C(Nc1ccccc1)Nc1c(F)cccc1F | inconclusive: 30.1 µM [inhibitor, single point] | – |
| Cc1ccc(NC(=O)CN(C)C(=O)c2cc(S(=O)(=O)N(C)C)ccc2N2CCCC2)cc1 | – | inactive: 2.92% |
| O=C(Nc1ccc(SC(F)F)cc1)c1ccc2c(=O)n3c(nc2c1)CCC3 | active: 2.39 µM | – |
| Cc1ccsc1/C=N/N1CCN(c2ccccc2)CC1 | inconclusive: 26.9 µM [inhibitor, partial curve] | – |
| CCCc1ccc(OCc2ccc(C(=O)N3CCN(c4ccccn4)CC3)o2)c(OC)c1 | inconclusive: 16.9 µM [inhibitor, partial curve] | – |
| COc1ccc(C(=O)Nc2nc3ccc(S(=O)(=O)N4CCCC4)cc3s2)cc1 | inconclusive: 16.9 µM [inhibitor, partial curve] | – |
| Cc1cc(Cl)ccc1OCC(=O)Nc1cccc(S(=O)(=O)N2CCCC2)c1 | active: 9.53 µM | – |
| Cc1cc(C)cc(NC(=O)C2CCN(c3nccs3)CC2)c1 | inconclusive: 19 µM [inhibitor, partial curve, poor fit] | – |
| Cc1occc1C(=O)Nc1ccccc1C(=O)O | active: 26.9 µM | – |
| CC(C)(C)c1ccc(C(CC(=O)O)NC(=O)CCCc2ccccc2)cc1 (configuration not stated) | inconclusive: 13.5 µM [inhibitor, partial curve] | – |
| O=C(Nc1ccccc1C(=O)O)c1cncc(Br)c1 | inconclusive: 30.1 µM [inhibitor, single point] | – |
| CC(C)Oc1ccc(C(=O)Nc2ccc(N(C)C)cc2)cc1 | active: 3.38 µM | – |
| CN(Cc1c(C(=O)N/N=C/c2cccc(O)c2)nnn1-c1nonc1N)C1CCCCC1 | – | inactive: 3.26% |
| CCc1nnc(NC(=O)CSc2nccn2Cc2ccc(F)cc2)s1 | inconclusive: 15.1 µM [inhibitor, partial curve, poor fit] | – |
| CCOC(=O)N1CCc2c(sc3c2C(=O)NC(c2ccccc2)N3)C1 (configuration not stated) | inconclusive: 33.8 µM [inhibitor, single point] | – |
| NC1=NC(=Nc2ccc(Br)cc2)c2ccccc21 | active: 8.49 µM | – |
